# Measurements taken from the supplement of paper PMC3334620.
# Whole data set: some 33,000 sequences, median “E-score (-0.5 to 0.5)” near -0.017, cut for the highest 2% near 0.3. The list shows a part of the results.
# Target: T1, Sut1 (UniProt P53032)
# T1 sequence: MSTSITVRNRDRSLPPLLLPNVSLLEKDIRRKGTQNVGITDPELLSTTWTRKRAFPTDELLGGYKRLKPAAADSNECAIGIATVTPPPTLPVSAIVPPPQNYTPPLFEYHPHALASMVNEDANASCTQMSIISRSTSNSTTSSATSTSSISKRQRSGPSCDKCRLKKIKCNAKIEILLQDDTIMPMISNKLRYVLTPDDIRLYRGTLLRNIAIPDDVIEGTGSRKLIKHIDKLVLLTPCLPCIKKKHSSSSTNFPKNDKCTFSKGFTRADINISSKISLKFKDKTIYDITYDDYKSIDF
# Test: PBM E-score (8-mer binding enrichment) (E-score (-0.5 to 0.5)); higher = stronger / more preferred TF binding; most listed sequences are background and not binding sites
# Details: protein concentration: 200 nM; construct: GST-full length
# Procedure, shortened: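 Using PURExpress in vitro transcription/translation, GST-tagged yeast transcription factors were made in full-length or DNA-binding-domain form. These were applied at about 100-200 nM to double-stranded universal all-10-mer Agilent arrays, and bound protein was detected with fluorescent anti-GST. Scans were normalised with masliner before the Universal PBM Analysis Suite assigned E-scores to ungapped eight-base words pooled with their reverse complements.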
row,Sequence,PBM E-score
1,GACCGTGC,-0.102
2,AGAGACCC,-0.15
3,ACTCGTAT,-0.0044
4,CACACTAA,0.169
5,AAGTACGA,0.124
6,GGGACGGA,0.0681
7,CAGGCATA,-0.184
8,GATAGCAC,-0.0925
9,GACTGCTC,-0.143
10,TCCCACCA,-0.19
11,GAAGCCGC,0.0214
12,CGGAACAG,0.232
13,AAAATGTT,0.169
14,GTAAATCA,0.191
15,GCTGGACC,-0.29
16,GAGTAATC,0.0879
17,ATGTATCA,0.129
18,AGAATCAG,0.0039
19,AGTGCTCC,-0.0835
20,CGAACCAC,-0.0343
21,AACCGATT,0.204
22,ATGTGTGG,-0.0951
23,GGCGGTAC,-0.0892
24,GATGCGCA,-0.167
25,TCAGCGCA,-0.0352

row,Sequence,PBM E-score
1,CTGGTAAG,-0.0364
2,ACATATTA,0.181
3,AAGAGGAA,0.0255
4,AGGTTTGA,0.0404
5,ACTCGTTA,0.0423
6,GGAGCGTA,0.0804
7,ACAAATAT,0.339
8,TCTCTCAA,0.143
9,AGACAACA,0.0054
10,AAGACACC,-0.0814
11,ATTAGTCC,0.254
12,AAACTAAC,0.27
13,AAGCGTTC,-0.0703
14,GATTCCCA,-0.188
15,AGACATCT,0.0692
16,AGCATCCT,-0.119
17,AGCACCGG,0.00205
18,GGTGTAGA,-0.149
19,GCCTGGCA,-0.3
20,ATCTCCAC,0.00944
21,AATAAAAT,0.297
22,ATGCAATA,0.024
23,TCACTTCA,-0.0869
24,GCAACAAC,0.0444
25,CGAAATAA,0.313

row,Sequence,PBM E-score
1,ACAACCAA,-0.0665
2,GAGCATAC,-0.0746
3,AAAGCTTA,0.16
4,AGTCCCAC,-0.142
5,CGAATTCC,0.097
6,GAACCCCC,-0.397
7,AATAGTCC,0.131
8,ACCGAAGT,0.133
9,CGGACACA,-0.034
10,GGGAGGAC,-0.285
11,ATGCCTCC,-0.176
12,CCCTCAGA,-0.309
13,TTAGAGAA,-0.0956
14,CGCTTGCC,-0.0742
15,CACGGACG,0.109
16,CAATTAAA,0.291
17,CGACGTCA,-0.126
18,AGTAAACC,0.0445
19,AGACTATA,0.0103
20,AATTTCCT,0.104
21,CAGGATCC,-0.045
22,CCTTCAAC,0.00395
23,ACGACTGG,-0.116
24,CCTGCCTC,-0.178
25,CCCGTACG,-0.0873

row,Sequence,PBM E-score
1,CGGGGCAA,-0.0211
2,ATCGTCAT,0.0553
3,CACTAACA,-0.0229
4,CGTTTCAC,0.0886
5,ACACGAAC,-0.0619
6,GAAGCCTA,-0.136
7,AGTTGACG,0.139
8,AGTGAGCC,-0.172
9,GATCAAAC,-0.00328
10,CATCACTC,-0.153
11,TCAGCCCA,-0.13
12,CTAGAATC,-0.0101
13,GCTTGGCC,-0.227
14,CTTTAAAG,0.0105
15,CATGTCAG,-0.193
16,CTGTCACC,-0.181
17,AAACGAGG,-0.146
18,ACCGCTAG,-0.21
19,CTAGGTAA,0.00352
20,AACTTGTC,0.116
21,CAGTAGCG,-0.231
22,TAACTCGA,0.164
23,ACACGTGA,-0.0894
24,TATATTAA,0.315
25,ACTGCGAC,0.114

row,Sequence,PBM E-score
1,CACCTGCC,-0.335
2,ACAGAATC,0.019
3,AGATGTAT,0.108
4,AAAGGAGT,0.162
5,ACCTGGTG,-0.129
6,GATGTACA,0.0869
7,GACTGAAC,-0.116
8,CGTCAGGA,-0.17
9,AATCGCGG,0.141
10,GGTCCAAC,-0.179
11,ATCGAGGC,-0.138
12,AATGGATA,0.11
13,CAACGATG,-0.069
14,GATGACAC,-0.117
15,AACTTTCG,0.0491
16,ACGCCCGC,-0.236
17,GTTCAGCA,-0.0537
18,GTGGGCCA,-0.0846
19,CATCGTCA,-0.0747
20,AGGAAAAG,0.18
21,CCCTCTGA,-0.182
22,GTCTGTCA,-0.0272
23,CTCTAGAG,0.0888
24,ACTGTTAA,0.197
25,AAAAAGTA,0.125

row,Sequence,PBM E-score
1,CCCTTTAC,0.0371
2,AACAGTAA,0.146
3,AATCTGCG,0.0657
4,ACTAGAGT,-0.00201
5,ACAGCTCT,-0.31
6,ACCGCGGT,-0.187
7,AGGTAGAT,-0.114
8,ATATATCC,0.244
9,CCCTTCCG,0.0394
10,CATTAGGA,-0.0109
11,GAAGACTC,0.111
12,TATTAAAA,0.287
13,GGTCGTAC,-0.221
14,GGGTGGAA,-0.0472
15,GTGCTGAA,-0.0394
16,ACCGACGA,-0.0025
17,GTCCCGAC,-0.119
18,TACCAGTA,0.0745
19,ATATCGGC,-0.0245
20,CTATCCTC,-0.0176
21,GGAAGTAC,-0.0238
22,CATGGGCC,-0.0383
23,GACGTCGC,-0.226
24,CAAGGTTC,0.0213
25,CCCAACTC,0.204

row,Sequence,PBM E-score
1,GACAAGAA,0.209
2,AAAACCTT,0.184
3,CCGAGATC,0.213
4,CAGAACCA,-0.028
5,AAAAGATG,0.0556
6,GATCGTAA,0.00877
7,ACGCATTG,-0.229
8,CTGCAAAA,0.0749
9,CGCCAGAG,-0.255
10,ATTAGAAT,0.105
11,AACGCGAT,-0.0947
12,ATTACAGC,0.0137
13,CAAGGATC,0.0407
14,CCCGGCAG,-0.0403
15,GACCTCGA,-0.0391
16,ATCCGTGA,-0.119
17,ATCTAAGG,-0.057
18,ACCTAACG,-0.0982
19,ATGCGTGG,-0.17
20,ACTAGATC,-0.117
21,TCGCTTAA,0.0457
22,AAAGTGTA,0.0802
